# Laboratory results as given in PubChem BioAssay AID1458 (National Center for Advancing Translational Sciences (NCATS), 2008).
# Among all 210,000 compounds or so, about 5,900 (2.8%) were called active. This list was built around the results that the source calls inconclusive (neither active nor inactive); the mix of calls is not that of the screen. Calls come from the whole dose curve; as a rule, active = well fitted activation curve with a large enough effect; inconclusive = small, poorly fitted or top-dose-only effect; inactive = no such curve, though single readings can be large or run the other way. Where the call is inconclusive, the potency comes from a doubtful curve fit.
# Experiment: qHTS Assay for Enhancers of SMN2 Splice Variant Expression; note: nearly all actives have a fitted effect of over 55% in size; for activity change, positive = activation: % of control where 0% means no effect
# Details: HEK293 SMN2-luciferase splicing reporter, luminescence, 30-36 h; activity change, positive = activation: at 46.1 µM (top of the series)
# Method in brief: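 HEK293 cells carry an SMN2 minigene-luciferase reporter in which exon 7 inclusion puts luciferase in frame. Cells were seeded at 2000 cells/well, attached for 10-12 hours, then exposed to compounds for 30-36 hours at 37C before ONE-Glo luminescence.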
# Potency is the fitted concentration of half-maximal effect; tags give direction and shape of the fitted curve.
Compound,Potency,"activity change, positive = activation"
O=C(CSCc1cccc(F)c1)N1CCN(c2ccccc2)CC1,active: 12.6 µM,–
Nc1nnc(SCc2cn3cc(Cl)ccc3n2)s1,"inconclusive: 11.2 µM [activator, partial curve]",–
Cc1cccc2cc(C(c3nnnn3Cc3ccccc3)N3CCCc4ccccc43)c(=O)[nH]c12 (centres undefined),"inconclusive: 15.8 µM [activator, partial curve]",–
CCc1ccc(NC(=O)c2cc3nc(-c4ccc(C)cc4)cc(C(F)(F)F)n3n2)cc1,–,inactive: 6.47%
Cc1nn2cc(-c3cccc(Cl)c3)cnc2c1Br,"inconclusive: 12.6 µM [activator, partial curve, poor fit]",–
Cc1cc(C)c(C(N)=O)c(NCCc2ccccc2)n1,"inconclusive: 3.98 µM [activator, partial curve]",–
Cc1ccc(NC(=O)OCc2cncs2)cc1,"inconclusive: 25.1 µM [activator, single point]",–
COc1cc(-c2nnc(-c3ccco3)o2)ccc1OCc1ccccc1,"inconclusive: 15.8 µM [activator, single point]",–
Cc1ccc(SCC(=O)N2CCOCC2)cc1,active: 11.2 µM,–
COc1cccc(O)c1O,–,inactive: -27.7%
S=C(c1ccc(-c2cc(Cl)ccc2Cl)o1)N1CCOCC1,–,inactive: -16.4%
COc1cc(C(=O)Nc2ccc(S(=O)(=O)N(C)c3ccccc3)cc2)cc(OC)c1OC,"inconclusive: 14.1 µM [activator, single point]",–
COc1ccccc1/C=N\N=C(\N)c1ccccn1,active: 15.8 µM,–
Cn1c(C(=O)OC(C(=O)NC2CCCCC2)c2ccccn2)cc2sccc21 (centres undefined),"inconclusive: 0.794 µM [activator, partial curve, poor fit]",–
NC(=O)C1CCN(CCC(=O)Nc2ccc3c(c2)CCC3)CC1,"inconclusive: 0.0501 µM [activator, full curve, poor fit]",–
CCC1CCCCN1C(=S)Nc1ccc(C(C)=O)cc1 (centres undefined),"inconclusive: 10 µM [activator, partial curve, poor fit]",–
COc1ccc(-c2cn3ccccc3n2)cc1OC,active: 17.8 µM,–
CCOC(=O)N1CCN(C(=O)CCCn2c(=S)[nH]c3ccccc3c2=O)CC1,–,inactive: -7.92%
COc1ccc(/C=C/C(=O)N[C@@H](C)C(=O)O)cc1,"inconclusive: 0.891 µM [activator, single point]",–
Fc1ccc(-n2ncc3c(SCc4cccnc4)ncnc32)cc1,–,inactive: -32.1%
Cc1nc(C)c(-c2csc(NCc3ccco3)n2)s1,"inconclusive: 14.1 µM [activator, partial curve, poor fit]",–
COc1ncnc2sc(-c3ccccc3)cc12,"inconclusive: 12.6 µM [activator, partial curve]",–

Compound,Potency,"activity change, positive = activation"
O=C(Nc1nnc(-c2ccccc2Cl)o1)c1cccnc1,"inconclusive: 15.8 µM [activator, single point]",–
O=C(Nc1ccc(N2CCCCC2)cc1)c1cc([N+](=O)[O-])cc([N+](=O)[O-])c1,"inconclusive: 11.2 µM [activator, partial curve, poor fit]",–
Nc1nonc1OCCc1ccccc1,"inconclusive: 5.62 µM [activator, full curve, poor fit]",–
Cn1c(SCC(=O)NCc2cccs2)nnc1-c1ccco1,"inconclusive: 0.0035 µM [activator, full curve, poor fit]",–
CCn1nc(C)c(/C=N/NC(=O)Cc2ccc(Cl)cc2)c1C,"inconclusive: 12.6 µM [activator, partial curve]",–
CC(C)(C)c1cc(-n2ccnc2)n2ncc(-c3ccc(Cl)cc3)c2n1,"inconclusive: 0.004 µM [activator, full curve, poor fit]",–
CCOc1ccccc1NC(=O)C(Sc1nnnn1C)c1ccccc1 (centres undefined),–,inactive: -8.42%
Cn1c(=O)c2c(n(C)c1=O)=NC1(CCCCC1)ON=2,"inconclusive: 1.12 µM [activator, full curve, poor fit]",–
Cc1cc(C(=O)Nc2c(C)n(C)n(-c3ccccc3)c2=O)cs1,"inconclusive: 35.5 µM [activator, single point]",–
CCN(C(=O)CSc1nc2nc(C)cc(C)n2n1)c1ccccc1,"inconclusive: 39.8 µM [activator, partial curve, poor fit]",–
Cc1cccc(-n2c(SCC(=O)N3CC(=O)Nc4ccccc43)nc3ccccc3c2=O)c1C,–,inactive: -19.1%
COCCNC(=O)COC(=O)c1cccnc1SC,"inconclusive: 10 µM [activator, single point]",–
CCCCCOc1ccc(CSC2=NCCN2)cc1[N+](=O)[O-],"inconclusive: 25.1 µM [activator, single point]",–
Cc1cc(C)nc(N/C(=N\S(=O)(=O)Cc2ccccc2)Nc2ccccc2Br)n1,–,inconclusive: 82.1% [activator]
CC(=O)c1ccc(Oc2cc(C)nc(-n3nc(C)cc3C)n2)cc1,"inconclusive: 0.794 µM [activator, partial curve]",–
O=C(OCC(=O)N1CCCCCC1)c1cccs1,"inconclusive: 7.94 µM [activator, partial curve]",–
Cc1ccc(=O)n(C(C(=O)NCc2ccco2)C(=O)c2ccc(F)cc2)c1 (centres undefined),"inconclusive: 6.31 µM [activator, partial curve, poor fit]",–
COc1ccccc1NC(=O)C1=C(C)Nc2nc(CCCO)nn2C1c1ccc2c(c1)OCO2 (centres undefined),"inconclusive: 35.5 µM [activator, partial curve, poor fit]",–
O=C1Nc2c(c(=O)[nH]c(=O)n2-c2ccccc2)C1(NS(=O)(=O)c1ccc(Cl)cc1)C(F)(F)F (centres undefined),–,inactive: -4.37%
COc1ccc2c(Cl)c(C(=O)NN3CCN(C)CC3)sc2c1,"inconclusive: 3.16 µM [activator, partial curve]",–
O=C1C2C3C=CC(C3)C2C(=O)N1/N=C/c1ccc(-c2ccccc2[N+](=O)[O-])o1 (centres undefined),"inconclusive: 22.4 µM [activator, single point]",–
Cc1cc(=O)[nH]c(N/N=C/c2sccc2C)n1,"inconclusive: 0.0045 µM [activator, full curve, poor fit]",–
